# Screen size: about 52,000 compounds; about 4,300 (8.3%) were called active. Cut-off read from the data, not from the text of the source: active = survival mostly below about 52% (no sharp cut-off); inactive = mostly above about 56%. This is one part of the list.
# Test system: DeltatarO mutant
# Assay: S. aureus survival, RN4220 and DeltatarO strains – OD600, teichoic acid synthesis inhibitors, primary screen (AID 463173)
# Details: S. aureus RN4220 wild type/DeltatarO growth, OD600, 18 h, hits give low values, screened at 18.75 µg/mL (by protocol)
row,Compound,survival
1,CCC(=O)C1=C(c2ccccc2)N(C(=O)CC)n2c(nnc2C2CCCCC2)S1,inactive: 55%
2,O=C(Nc1ccccc1[N+](=O)[O-])c1csnn1,inactive: 73%
3,CC(C)c1ccc(Nc2c(-c3ccsc3)nc3ccc(Cl)cn23)cc1,inactive: 101%
4,Cc1ccc2nc(NCCc3ccc(Cl)cc3)c3nncn3c2c1,inactive: 68%
5,CCOC(=O)C1=C(CN(C)Cc2ccccc2)NC(=O)NC1c1ccc(OC(C)C)cc1 (stereo unspecified),inactive: 77%
6,Cc1ccc(NC(=O)CN2C(=O)C(c3ccc(F)cc3)=NC2(C)C)c(C)c1,inactive: 90%
7,Cc1cccc(C(=O)Nc2sc3c(c2C(=O)Nc2ccccc2)CCC3)c1,inactive: 66%
8,CCOc1ccccc1NC(=O)C(=O)NCC(c1cccnc1)N1CCN(c2ccccc2)CC1 (stereo unspecified),inactive: 54%
9,Cc1ccc(C=C2C(=O)N(C)C(=O)N(C)C2=O)cc1,inactive: 82%
10,O=C1C2CCCN2C(=O)N1c1ccc(Br)cc1 (stereo unspecified),inactive: 108%
11,Cc1ccc(CNC(=O)c2ccc(NC(=O)c3nsc4ccccc34)cc2)cc1,inactive: 83%
12,O=C(Nc1ccc2nc(SCC(=O)N3CCc4ccccc43)sc2c1)c1ccc(Cl)cc1,inactive: 80%
13,O=C(CSc1nc(-c2cccs2)cc(C(F)(F)F)n1)Nc1ccccc1Cl,inactive: 121%
14,Cc1ccccc1NC(=O)CSc1nc2ccc(NC(=O)c3ccco3)cc2s1,inactive: 57%
15,COC(=O)C1(CO)NC(c2ccc(Cl)cc2)C2C(=O)N(C)C(=O)C21 (stereo unspecified),inactive: 66%
16,Clc1ccc(-c2noc3ncnc(N4CCCCC4)c23)cc1,inactive: 86%
17,CCOc1cc(Cl)c(S(=O)(=O)n2cc(C)nc2CC)cc1Cl,active: 3%
18,CN(C)c1ccc(CNS(=O)(=O)c2csc(C(N)=O)c2)cc1,inactive: 60%
19,COc1cccc(NC(=O)Nc2cc(-c3cn4cccnc4n3)ccc2OC)c1,inactive: 70%
20,CCn1cc2nc(SCc3ccccc3)n(Cc3ccc(C)cc3)c(=O)c2n1,inactive: 93%
21,O=C(NCC(c1ccco1)S(=O)(=O)c1cccs1)c1ccc(C(F)(F)F)cc1 (stereo unspecified),inactive: 78%
22,CCOc1ccc(C(CC(=O)Nc2ccc(C(=O)OC)cc2)N2Cc3ccccc3C2=O)cc1OC (stereo unspecified),inactive: 73%
23,COc1cccc(NC(=O)c2oc3ccc(S(=O)(=O)N4CCC5(CC4)OCCO5)cc3c2C)c1,inactive: 105%

row,Compound,survival
1,CC(C)(C)c1ccc(OCc2cc(=O)n3c4c(sc3n2)CCCC4)cc1,inactive: 88%
2,COc1ccc(-c2noc(CSc3nnc(C)n3-c3ccc(C)cc3)n2)cc1,active: 57%
3,COc1ccc(N2CC(C(=O)Nc3ccccc3-c3nc(-c4ccc(C)cc4)no3)CC2=O)cc1 (stereo unspecified),active: 54%
4,O=C(NCCOc1ccccc1Cl)c1ncn[nH]1,inactive: 87%
5,Cn1c(=O)c2c(nc(NCc3ccccc3)n2Cc2ccc(Cl)c(Cl)c2)n(C)c1=O,inactive: 42%
6,COc1ccc(C(=O)NCCc2nc3ccccc3[nH]2)cc1,inactive: 127%
7,CCCSc1nc2c(c(=O)[nH]1)C(c1ccc(O)c(OCC)c1)CC(=O)N2 (stereo unspecified),inactive: 112%
8,CCc1ccccc1NC(=O)COC(=O)c1cn(CC)c2nc(C)ccc2c1=O,inactive: 81%
9,CCCCOC(=O)c1ccc(Nc2nc3ccc(C)cc3n3cnnc23)cc1,inactive: 75%
10,CN(C)c1ccc(NC(=O)C2(c3cccs3)CCOCC2)cc1,inactive: 117%
11,O=C(Nc1cc(Cl)ccc1O)c1cc2nc(-c3ccc4c(c3)OCO4)cc(C(F)(F)F)n2n1,inactive: 86%
12,O=C(COc1ccc(F)cc1)OCc1cc(=O)n2nc(C3CC3)sc2n1,inactive: 83%
13,Cc1ccc(CCNC(=O)C2CCCN(S(=O)(=O)c3ccc4c(c3)oc(=O)n4C)C2)cc1 (stereo unspecified),inactive: 86%
14,CCOc1ccccc1Nc1nc(N)nc(CN(C)C2CCCCC2)n1,inactive: 86%
15,CCc1ccc(-n2nc(C)c3c(C)cc(=O)n(CC(=O)N(CC)Cc4ccccc4)c32)cc1,inactive: 90%
16,CCc1ccc(C(=O)c2cn(Cc3ccccc3)c3cc(OC)c(OC)cc3c2=O)cc1,inactive: 58%
17,Oc1c(C(c2ccc(Cl)cc2Cl)N2CCCC2)sc2nc(-c3ccco3)nn12 (stereo unspecified),inactive: 68%
18,COc1ccccc1NC(=O)CSc1nc(-c2cccc(Cl)c2)nc2c1Cc1c(CO)cnc(C)c1O2,inactive: 87%
19,CCOc1ccc(CCNC(=O)CCSCc2cccc(Cl)c2)cc1OCC,inactive: 81%
20,O=C(CC(=O)Nc1ccccc1F)Nc1ccc2nc3n(c(=O)c2c1)CCCCC3,inactive: 92%
21,Cc1ccc(-c2nc(SCC(=O)Nc3cc(C)on3)c3c(=O)n(C)c(=O)n(C)c3n2)cc1,inactive: 83%
22,Cc1cccc(N2CCN(C(=O)c3ccc4c(c3)N(Cc3cccc(Cl)c3)C(=O)c3ccccc3S4=O)CC2)c1C (stereo unspecified),inactive: 118%
23,O=C(CSCc1ccc(F)cc1)N1CCc2c([nH]c3ccccc23)C1c1ccccc1 (stereo unspecified),inactive: 101%

# Reference: PubChem BioAssay AID463173 (ICCB-Longwood Screening Facility, Harvard Medical School, 2010)
